Test results taken from the supplement of paper PMC5499739.
In all, about 16,000 sequences were measured (“Z-score”: median about -0.37, highest 2% from about 3.1 on). Some of the results follow.

Tested on: RBM10 RRM1-ZnF-RRM2 (GST-tagged construct)
Assay: RNAcompete 7-mer binding Z-score; higher = stronger binding preference
Method: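 RNAcompete: 20 pmol GST-tagged RBM10 RNA-binding constructs were incubated with a designed RNA pool of about 241,000 sequences up to 41 nt (1.5 nmol) on glutathione beads for 30 min at 4 °C and washed. Bound RNAs were identified by microarray hybridisation. Each RNA 7-mer is scored by a one-sided Z-score of its enrichment, computed over probes that contain the 7-mer within longer pool sequences.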

| Sequence | RNAcompete 7-mer binding Z-score |
| --- | --- |
| ACCAGGC | -0.136 |
| GCGCAUG | 0.301 |
| CAAUACG | -0.0124 |
| GUAUUGC | -0.329 |
| CAAGAUG | -0.0343 |
| CAAAUCC | -0.737 |
| CGUCUAG | -0.533 |
| ACAUAAU | -0.577 |
| GCACAAC | -0.318 |
| UCGAGUA | -0.0488 |
| GGAUUUA | 0.607 |
| UAGGAUU | 0.774 |
| CCAACAU | -0.643 |
| CCAGAUG | -0.329 |
| GGCCGUA | 0.0786 |
| GUGCAAA | 0.483 |
| UGUAUAA | -0.111 |
| GCCACAG | -0.165 |
| UUAGCAU | -0.406 |
| CCCGUUU | -1.04 |
| UGCCUAA | -0.836 |
| UCUACCU | -0.879 |
| GGUAAAU | 1.4 |
| CGUGCCU | -0.836 |
| GUCAAAA | -0.209 |

| Sequence | RNAcompete 7-mer binding Z-score |
| --- | --- |
| ACCAAUU | -0.522 |
| AUAGUGU | 0.0568 |
| ACCCACA | -0.843 |
| GCGCGAU | 0.024 |
| GGAGCGA | 2.9 |
| AGUUGUU | -0.431 |
| UGAACAA | 0.0459 |
| GCGCGUG | 0.661 |
| CUUUCGA | -0.876 |
| CCCGCGA | -0.887 |
| UAAAGUC | -0.351 |
| UCGCAUG | -0.526 |
| UCGGCUA | -0.537 |
| AGUCAGA | 0.246 |
| AUUCCUU | -0.879 |
| GCGUCGA | -0.114 |
| CUCUCAA | -0.741 |
| ACUUAUU | -0.712 |
| GGUUGUA | 0.935 |
| GGAUGUC | 0.556 |
| UACAAAA | -0.369 |
| CCUAUAA | -0.595 |
| CGGGCAU | 0.836 |
| GCGCGAA | -0.322 |
| AGUAAAC | 0.0532 |

| Sequence | RNAcompete 7-mer binding Z-score |
| --- | --- |
| GCGACCG | -0.0197 |
| UCCCGUU | -0.799 |
| GAGAUGU | 0.392 |
| UCCGCCA | -0.861 |
| GAGCACU | -0.435 |
| AAGUCCC | -0.632 |
| ACUUGGC | -0.679 |
| UCGAAAU | -0.573 |
| UAUUAUG | -0.078 |
| GCGUUCC | -0.562 |
| GUUAGGU | 1.89 |
| UACCGUU | -0.643 |
| UGAGUGU | 0.355 |
| GGACAUC | 0.272 |
| UCCAUUA | -0.653 |
| GUUCAGG | 0.53 |
| AGGUUUG | 0.942 |
| CUUGCAG | -0.697 |
| CUUAAGU | -0.628 |
| AUGACUG | -0.213 |
| CCGGGUU | 0.385 |
| CCUGUGA | -0.737 |
| UCUUAGA | -0.657 |
| CUUCACG | -0.825 |
| ACAGCUA | -0.398 |

| Sequence | RNAcompete 7-mer binding Z-score |
| --- | --- |
| AUGGAGU | 2.24 |
| AAACGAG | 0.738 |
| UACGAGA | 0.00944 |
| UGACCCA | -0.562 |
| CGUGCCG | -0.49 |
| GAGCGAA | 1.04 |
| ACGCAUG | -0.00877 |
| GCUGACG | 0.0058 |
| GCACGCC | -0.581 |
| CAAGUAU | -0.391 |
| AUAUAUU | -0.515 |
| CAUAUAU | -0.602 |
| UAAACGC | -0.533 |
| AUAUUGA | -0.198 |
| GCGGCUC | -0.191 |
| AAACUAG | -0.0306 |
| UACGCCC | -0.741 |
| GUAUUCC | -0.271 |
| CCAGCCG | -0.657 |
| CCCUAAA | -0.814 |
| AUUUGAG | -0.078 |
| CGGCUGC | -0.0998 |
| CUACUUC | -0.992 |
| AUCGCAA | -0.388 |
| UACAGGU | 0.763 |
